Data as given in US20030180714A1 (Genentech, published 2003).

How the values were obtained:
[1] = target: T1, anti-hGH monoclonal antibody 3F6.B1.4B1; assay: homolog shotgun scan, anti-hGH sort
T1 construct: also called anti-hGH antibody

[2] = target: T1, anti-hGH monoclonal antibody 3F6.B1.4B1; assay: Ser shotgun scan, anti-hGH sort

B1: hGH F176Y (ligand)
chain: not shown
notes: mature
(wt/mut)antibody [1]: 1.08

B2: hGH R64K (ligand)
chain: not shown
notes: mature
(wt/mut)antibody [1]: 1.16

B3: hGH S62A (ligand)
chain: not shown
notes: mature
(wt/mut)antibody [1]: 1.04

B4: hGH T175S (ligand)
chain: not shown
notes: mature
(wt/Ser)antibody [2]: 0.45
(wt/mut)antibody [1]: 0.5

B5: hGH P48A (ligand)
chain: not shown
notes: mature
(wt/mut)antibody [1]: 0.56

B6: hGH P61A (ligand)
chain: not shown
notes: mature
(wt/mut)antibody [1]: 0.43

B7: hGH R178K (ligand)
chain: not shown
notes: mature
(wt/mut)antibody [1]: 2.12
